Where a chain is given by its changes, count along the chain named. No constants are given. Whether binding was seen depends on the method and setting. Binding seen in cells or lysates may run through a third protein. Some results given as binding are weak or reduced against the parent protein; the word gives no strength. Sequences can lack the tags named with a protein.
Legend:
[1] = target: T1, SRC-like adaptor protein 2 (SLAP2), wild type, Myc-FLAG tagged (human) (UniProt Q9H6Q3); assay: co-IP; COS-1 cells co-transfected with KIT (wild type or D816V) and SLAP2-FLAG (wild type or R121E); 24 h later incubated with 100 ng/ml SCF for 5 min (KIT-D816V with or without SCF); lysed in 1% Triton X-100 buffer; immunoprecipitated with anti-FLAG, blotted for KIT
T1 sequence: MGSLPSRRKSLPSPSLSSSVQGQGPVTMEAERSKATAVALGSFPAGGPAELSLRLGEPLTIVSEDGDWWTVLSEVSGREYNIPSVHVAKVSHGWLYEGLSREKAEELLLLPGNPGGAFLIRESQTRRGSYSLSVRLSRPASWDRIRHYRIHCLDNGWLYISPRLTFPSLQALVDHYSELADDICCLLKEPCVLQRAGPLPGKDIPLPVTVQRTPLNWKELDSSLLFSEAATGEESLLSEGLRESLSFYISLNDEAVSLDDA

Chains of the proteins cited; added tags and fusions are not shown. Lines headed by an entry give the natural chain unless they say otherwise; changes in a name come on top. A line that says so, or that is headed by a name, gives the form on record, which may keep a tag or linker. Residues count along the entry.
wild-type KIT (stem cell factor receptor) (P10721, residues 26-976): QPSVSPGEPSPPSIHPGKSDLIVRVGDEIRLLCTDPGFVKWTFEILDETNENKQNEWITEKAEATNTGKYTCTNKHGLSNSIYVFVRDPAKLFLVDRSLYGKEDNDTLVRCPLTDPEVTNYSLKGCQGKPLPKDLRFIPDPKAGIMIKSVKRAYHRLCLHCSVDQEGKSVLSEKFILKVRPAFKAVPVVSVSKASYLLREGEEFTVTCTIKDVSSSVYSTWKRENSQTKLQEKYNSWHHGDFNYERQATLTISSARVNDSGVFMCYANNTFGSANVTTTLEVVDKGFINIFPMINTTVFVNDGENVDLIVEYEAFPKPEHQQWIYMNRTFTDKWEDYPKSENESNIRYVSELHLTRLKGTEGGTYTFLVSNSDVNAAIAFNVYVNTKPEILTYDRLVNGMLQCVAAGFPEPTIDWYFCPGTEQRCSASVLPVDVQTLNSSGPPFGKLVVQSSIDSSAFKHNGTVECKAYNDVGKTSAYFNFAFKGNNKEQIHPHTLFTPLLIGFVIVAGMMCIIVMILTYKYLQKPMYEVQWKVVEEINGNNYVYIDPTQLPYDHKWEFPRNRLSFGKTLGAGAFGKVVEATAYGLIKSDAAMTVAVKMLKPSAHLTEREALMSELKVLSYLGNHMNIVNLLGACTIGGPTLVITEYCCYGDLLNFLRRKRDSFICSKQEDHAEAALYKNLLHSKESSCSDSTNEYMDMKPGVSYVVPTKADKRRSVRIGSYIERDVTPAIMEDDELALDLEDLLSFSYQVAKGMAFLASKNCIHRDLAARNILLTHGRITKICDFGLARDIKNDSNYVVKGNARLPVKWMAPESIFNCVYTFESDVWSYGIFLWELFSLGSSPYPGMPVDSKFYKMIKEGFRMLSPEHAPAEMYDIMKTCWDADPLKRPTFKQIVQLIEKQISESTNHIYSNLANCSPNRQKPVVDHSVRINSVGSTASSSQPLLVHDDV
KIT-D816V (oncogenic mutant of KIT) (P10721, form named): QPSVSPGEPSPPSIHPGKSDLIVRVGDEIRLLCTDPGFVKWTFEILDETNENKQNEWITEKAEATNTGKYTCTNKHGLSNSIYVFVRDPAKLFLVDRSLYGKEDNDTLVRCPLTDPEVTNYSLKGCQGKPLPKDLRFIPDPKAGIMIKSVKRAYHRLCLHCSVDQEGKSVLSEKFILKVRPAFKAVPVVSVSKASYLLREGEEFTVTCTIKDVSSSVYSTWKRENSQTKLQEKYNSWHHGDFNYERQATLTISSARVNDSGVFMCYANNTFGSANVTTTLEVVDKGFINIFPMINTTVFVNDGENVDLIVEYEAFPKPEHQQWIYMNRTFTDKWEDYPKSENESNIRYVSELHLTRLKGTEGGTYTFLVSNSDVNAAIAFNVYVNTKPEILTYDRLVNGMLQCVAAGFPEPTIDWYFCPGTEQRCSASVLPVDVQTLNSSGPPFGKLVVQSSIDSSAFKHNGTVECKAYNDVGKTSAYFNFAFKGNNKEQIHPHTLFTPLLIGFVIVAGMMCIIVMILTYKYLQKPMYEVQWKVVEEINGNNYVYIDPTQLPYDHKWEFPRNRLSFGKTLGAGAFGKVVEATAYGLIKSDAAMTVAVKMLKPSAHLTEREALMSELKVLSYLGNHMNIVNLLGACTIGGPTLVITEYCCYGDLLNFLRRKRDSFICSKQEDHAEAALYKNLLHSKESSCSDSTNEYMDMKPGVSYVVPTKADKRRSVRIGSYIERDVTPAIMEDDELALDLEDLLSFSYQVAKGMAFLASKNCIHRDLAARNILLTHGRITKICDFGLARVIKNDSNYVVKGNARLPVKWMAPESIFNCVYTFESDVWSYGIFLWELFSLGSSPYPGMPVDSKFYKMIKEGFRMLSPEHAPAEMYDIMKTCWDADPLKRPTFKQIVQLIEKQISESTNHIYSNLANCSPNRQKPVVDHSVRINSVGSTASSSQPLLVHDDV

[2] = target: T2, SLAP2-R121E-Myc-FLAG (SLAP2 SH2 domain mutant) (human) (UniProt Q9H6Q3); assay: as above
T2 sequence: T1 sequence with R121E

[3] = target: T1, SRC-like adaptor protein 2 (SLAP2), wild type, Myc-FLAG tagged (human); assay: co-IP; as a1, but cells not stimulated with SCF: COS-1 co-transfected with wild-type KIT and SLAP2-FLAG, anti-FLAG immunoprecipitation, blotted for KIT

Row | Substance | binding [1] | binding [2] | binding [3]
1 | KIT-D816V (oncogenic mutant of KIT) (from UniProt P10721 26-976) (receptor) | binds | no binding | 
2 | wild-type KIT (stem cell factor receptor) (from UniProt P10721 26-976) | binds | no binding | no binding (condition: cells not stimulated with SCF)

Reference: paper PMC5913247
